# From the supplement of paper PMC12067230
# This is a noisy data set.
# Experiment: amyloid nucleation score relative to library mode (yeast Sup35 reporter selection) (log enrichment difference); higher = more amyloid nucleation; sequences are the first 22 residues of the Bri2 peptide extended by up to 12 random residues
# Conditions: random library (experiment): 1;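 active = nucleation score significantly above 0 at FDR 0.05; inactive = not significantly above 0 or absent from output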
# 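Further: [psi-pin-] Saccharomyces cerevisiae expressing SupN fusions, induced by 100 µM Cu2SO4, selected 7 d at 30 °C without adenine and uracil, scored by deep sequencing of output versus input.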
row,Sequence,amyloid nucleation score
1,EASNCFAIRHFENKFAVETLICAVLIGRVDWVRV,inactive
2,EASNCFAIRHFENKFAVETLICRMPYSFDGMQWA,3.97
3,EASNCFAIRHFENKFAVETLICLE,inactive
4,EASNCFAIRHFENKFAVETLICIDML,inactive
5,EASNCFAIRHFENKFAVETLICKSRFSARERGAA,inactive
6,EASNCFAIRHFENKFAVETLICAMVWKWSWPGGW,inactive
7,EASNCFAIRHFENKFAVETLICVRSDGGQRCSMW,4.29
8,EASNCFAIRHFENKFAVETLICLDLVHGCWTRSL,2.67
9,EASNCFAIRHFENKFAVETLICVTVPNGHVFLIE,1.95
10,EASNCFAIRHFENKFAVETLICQSLYLLLWNPQT,3.77
11,EASNCFAIRHFENKFAVETLICRALSKYM,1.41
12,EASNCFAIRHFENKFAVETLICEGYDTVMNRGKW,1.25
13,EASNCFAIRHFENKFAVETLICTMVDRRLSEETF,inactive
14,EASNCFAIRHFENKFAVETLICGPLLFDSYVIW,inactive
15,EASNCFAIRHFENKFAVETLICEKFRSIAMTRAC,inactive
16,EASNCFAIRHFENKFAVETLICLRSGRSERRRSR,inactive
17,EASNCFAIRHFENKFAVETLICNEMWNWSMLWMC,-0.00976
18,EASNCFAIRHFENKFAVETLICWNIGWFWCWYSR,inactive
19,EASNCFAIRHFENKFAVETLICAVWCKGASVRVR,1.32
20,EASNCFAIRHFENKFAVETLICYFQRRWTIEV,inactive
21,EASNCFAIRHFENKFAVETLICYEMGWVMTVWQW,1.53
22,EASNCFAIRHFENKFAVETLICHILVPREMFEVR,2.93

row,Sequence,amyloid nucleation score
1,EASNCFAIRHFENKFAVETLICVDSAFGLETSRK,inactive
2,EASNCFAIRHFENKFAVETLICNGHTQRYRRCAG,inactive
3,EASNCFAIRHFENKFAVETLICLPIDDSSLRDPI,-0.179
4,EASNCFAIRHFENKFAVETLICIT,inactive
5,EASNCFAIRHFENKFAVETLICLYDDSV,inactive
6,EASNCFAIRHFENKFAVETLICFKRT,inactive
7,EASNCFAIRHFENKFAVETLICTAARSTVVSDRS,-0.111
8,EASNCFAIRHFENKFAVETLICYHIRLMVDPGPE,inactive
9,EASNCFAIRHFENKFAVETLICYLQQSDY,7.07
10,EASNCFAIRHFENKFAVETLICMAVSRLWVSRAR,inactive
11,EASNCFAIRHFENKFAVETLICVRC,0.443
12,EASNCFAIRHFENKFAVETLICVQRIMQDSVVRW,inactive
13,EASNCFAIRHFENKFAVETLICCLICSYWFLTVP,inactive
14,EASNCFAIRHFENKFAVETLICTPSQRRY,inactive
15,EASNCFAIRHFENKFAVETLICFRCVVEPLTMGC,2.91
16,EASNCFAIRHFENKFAVETLICMHDQR,inactive
17,EASNCFAIRHFENKFAVETLICCIEARERFLHAG,inactive
18,EASNCFAIRHFENKFAVETLICQIFGNQVRYFLL,inactive
19,EASNCFAIRHFENKFAVETLICFEELRSDLWRKS,inactive
20,EASNCFAIRHFENKFAVETLICRNVWQAGQRRAN,-0.0664
21,EASNCFAIRHFENKFAVETLICINR,4.88
22,EASNCFAIRHFENKFAVETLICLLSYWFFALVWQ,inactive

# Same assay, conditions: random library (experiment): 2
row,Sequence,amyloid nucleation score
1,EASNCFAIRHFENKFAVETLICNVFWLNVFWEIR,inactive
2,EASNCFAIRHFENKFAVETLICESS,inactive
3,EASNCFAIRHFENKFAVETLICVFTLPICRARSI,4.38
4,EASNCFAIRHFENKFAVETLICALASLYSIWLHW,0.571
5,EASNCFAIRHFENKFAVETLICFVSVMCSNDTLR,inactive
6,EASNCFAIRHFENKFAVETLICGLIGSHFIRSFC,inactive
7,EASNCFAIRHFENKFAVETLICKVVRDRVNGWVW,inactive
8,EASNCFAIRHFENKFAVETLICFLFFTSVLCEFT,inactive
9,EASNCFAIRHFENKFAVETLICKMYY,inactive
10,EASNCFAIRHFENKFAVETLICHVRSPEVFRFIG,inactive
11,EASNCFAIRHFENKFAVETLICMSHFCFMWFLDY,inactive
12,EASNCFAIRHFENKFAVETLICGWSRRRIGKLAR,inactive
13,EASNCFAIRHFENKFAVETLICRMRKSIFVTFVS,inactive
14,EASNCFAIRHFENKFAVETLICVYV,inactive
15,EASNCFAIRHFENKFAVETLICVTYDDVVCHVVL,0.545
16,EASNCFAIRHFENKFAVETLICRHHSWPLLGSGR,inactive
17,EASNCFAIRHFENKFAVETLICALYRDFRTEANM,inactive
18,EASNCFAIRHFENKFAVETLICGLLYSSLSVIAF,inactive
19,EASNCFAIRHFENKFAVETLICMSH,inactive
20,EASNCFAIRHFENKFAVETLICLFNTGVFSYTAV,2.26
21,EASNCFAIRHFENKFAVETLICRSAFDSLVGAYE,inactive
22,EASNCFAIRHFENKFAVETLICFNRSPSLRYQVL,inactive
23,EASNCFAIRHFENKFAVETLICNIRSLCYQALRM,inactive

row,Sequence,amyloid nucleation score
1,EASNCFAIRHFENKFAVETLICVSLVIQCSSV,inactive
2,EASNCFAIRHFENKFAVETLICIMEYEYLSKCVC,-0.315
3,EASNCFAIRHFENKFAVETLICNLCALYVNTLCS,6.16
4,EASNCFAIRHFENKFAVETLICIFEVG,4.67
5,EASNCFAIRHFENKFAVETLICFMDLSE,5.47
6,EASNCFAIRHFENKFAVETLICLWNVKARLVAW,inactive
7,EASNCFAIRHFENKFAVETLICRYKNSAPVSTMI,inactive
8,EASNCFAIRHFENKFAVETLICFPGPGNTIRCHI,inactive
9,EASNCFAIRHFENKFAVETLICLVAHWMQDRY,2.09
10,EASNCFAIRHFENKFAVETLICTQN,-0.122
11,EASNCFAIRHFENKFAVETLICDQYNQSIMRRSW,3.33
12,EASNCFAIRHFENKFAVETLICKTWCTTFGRALG,inactive
13,EASNCFAIRHFENKFAVETLICAC,inactive
14,EASNCFAIRHFENKFAVETLICMT,inactive
15,EASNCFAIRHFENKFAVETLICYFARIGSIYVLL,-0.482
16,EASNCFAIRHFENKFAVETLICLYDIA,inactive
17,EASNCFAIRHFENKFAVETLICPSNARSRSGCVL,inactive
18,EASNCFAIRHFENKFAVETLICCVLVCSTVSSYN,inactive
19,EASNCFAIRHFENKFAVETLICAGTTCMLCDGIY,4.57
20,EASNCFAIRHFENKFAVETLICHDKKTTVVMGLG,inactive
21,EASNCFAIRHFENKFAVETLICYGY,1.52
22,EASNCFAIRHFENKFAVETLICEVVICEHTFCGR,3.68
23,EASNCFAIRHFENKFAVETLICFQMEYSLLTFDP,inactive

# Same assay, conditions: random library (experiment): 3
row,Sequence,amyloid nucleation score
1,EASNCFAIRHFENKFAVETLICGCWNEPLLACTG,inactive
2,EASNCFAIRHFENKFAVETLICDEWSSRLIGVRG,inactive
3,EASNCFAIRHFENKFAVETLICWCLCRFHARVHL,inactive
4,EASNCFAIRHFENKFAVETLICICPKCPWGCGPK,7.43
5,EASNCFAIRHFENKFAVETLICRLLRRS,inactive
6,EASNCFAIRHFENKFAVETLICGTV,inactive
7,EASNCFAIRHFENKFAVETLICCAWDVC,9.35
8,EASNCFAIRHFENKFAVETLICGRSEWVMIRSRG,inactive
9,EASNCFAIRHFENKFAVETLICFYLFPICYSLYR,inactive
10,EASNCFAIRHFENKFAVETLICILGTLVSRVIFM,0.711
11,EASNCFAIRHFENKFAVETLICARQRRFGAKRRW,inactive
12,EASNCFAIRHFENKFAVETLICMLFARPHSVSYK,inactive
13,EASNCFAIRHFENKFAVETLICWSPERC,3.5
14,EASNCFAIRHFENKFAVETLICIDSLYVCMPLRA,5.6
15,EASNCFAIRHFENKFAVETLICLRVLAFGDGKHG,inactive
16,EASNCFAIRHFENKFAVETLICVQDPEECVRARA,inactive
17,EASNCFAIRHFENKFAVETLICWSALCVVIGFRW,inactive
18,EASNCFAIRHFENKFAVETLICAKRAYHWPRPSF,inactive
19,EASNCFAIRHFENKFAVETLICDVVFERGSPGSG,1.34
20,EASNCFAIRHFENKFAVETLICRRSWDAICLLRR,inactive
21,EASNCFAIRHFENKFAVETLICWTFHRSRCMTIV,inactive
22,EASNCFAIRHFENKFAVETLICTQCTHIYTSSHL,4.51
23,EASNCFAIRHFENKFAVETLICMTCYVRRRRSRG,3.97
24,EASNCFAIRHFENKFAVETLICLELRLGYCRQVE,2.2
25,EASNCFAIRHFENKFAVETLICDEVSLQGFEVWW,inactive
26,EASNCFAIRHFENKFAVETLICTERSGGGRRRWE,inactive
27,EASNCFAIRHFENKFAVETLICIDGQSGGWACFS,7.96
28,EASNCFAIRHFENKFAVETLICNVMIMTYRTNLM,inactive
29,EASNCFAIRHFENKFAVETLICMEGQKAYFRSMC,0.49
